This note sets out measurements from patent US10907158B2, “Antisense antibacterial compounds and methods” (priority 2015, dated 2021).

In the assay the test system is Klebsiella pneumoniae F45153. As to conditions: Pip/Tazo alone, 18 h, MHII.

Piperacillin/Tazobactam [Pip/Tazo]: the MIC was found to be 2 µg/mL.

A word on the MIC: it is the least concentration at which growth counts as inhibited. The low end stands for a more susceptible organism, the high end for a less susceptible organism.
